In PMC11904782:
Results are given in words; binding and its absence hold for the method and conditions named. Binding seen in cells or lysates may run through a third protein. Some results given as binding are weak or reduced against the parent protein; the word gives no strength.

By UniProt entry, the sequences of proteins in these tests, tags left out. Where a name states a change or a piece, a line headed by the entry shows the natural chain unless it says otherwise. Residues count along the entry.
UniProt O14497: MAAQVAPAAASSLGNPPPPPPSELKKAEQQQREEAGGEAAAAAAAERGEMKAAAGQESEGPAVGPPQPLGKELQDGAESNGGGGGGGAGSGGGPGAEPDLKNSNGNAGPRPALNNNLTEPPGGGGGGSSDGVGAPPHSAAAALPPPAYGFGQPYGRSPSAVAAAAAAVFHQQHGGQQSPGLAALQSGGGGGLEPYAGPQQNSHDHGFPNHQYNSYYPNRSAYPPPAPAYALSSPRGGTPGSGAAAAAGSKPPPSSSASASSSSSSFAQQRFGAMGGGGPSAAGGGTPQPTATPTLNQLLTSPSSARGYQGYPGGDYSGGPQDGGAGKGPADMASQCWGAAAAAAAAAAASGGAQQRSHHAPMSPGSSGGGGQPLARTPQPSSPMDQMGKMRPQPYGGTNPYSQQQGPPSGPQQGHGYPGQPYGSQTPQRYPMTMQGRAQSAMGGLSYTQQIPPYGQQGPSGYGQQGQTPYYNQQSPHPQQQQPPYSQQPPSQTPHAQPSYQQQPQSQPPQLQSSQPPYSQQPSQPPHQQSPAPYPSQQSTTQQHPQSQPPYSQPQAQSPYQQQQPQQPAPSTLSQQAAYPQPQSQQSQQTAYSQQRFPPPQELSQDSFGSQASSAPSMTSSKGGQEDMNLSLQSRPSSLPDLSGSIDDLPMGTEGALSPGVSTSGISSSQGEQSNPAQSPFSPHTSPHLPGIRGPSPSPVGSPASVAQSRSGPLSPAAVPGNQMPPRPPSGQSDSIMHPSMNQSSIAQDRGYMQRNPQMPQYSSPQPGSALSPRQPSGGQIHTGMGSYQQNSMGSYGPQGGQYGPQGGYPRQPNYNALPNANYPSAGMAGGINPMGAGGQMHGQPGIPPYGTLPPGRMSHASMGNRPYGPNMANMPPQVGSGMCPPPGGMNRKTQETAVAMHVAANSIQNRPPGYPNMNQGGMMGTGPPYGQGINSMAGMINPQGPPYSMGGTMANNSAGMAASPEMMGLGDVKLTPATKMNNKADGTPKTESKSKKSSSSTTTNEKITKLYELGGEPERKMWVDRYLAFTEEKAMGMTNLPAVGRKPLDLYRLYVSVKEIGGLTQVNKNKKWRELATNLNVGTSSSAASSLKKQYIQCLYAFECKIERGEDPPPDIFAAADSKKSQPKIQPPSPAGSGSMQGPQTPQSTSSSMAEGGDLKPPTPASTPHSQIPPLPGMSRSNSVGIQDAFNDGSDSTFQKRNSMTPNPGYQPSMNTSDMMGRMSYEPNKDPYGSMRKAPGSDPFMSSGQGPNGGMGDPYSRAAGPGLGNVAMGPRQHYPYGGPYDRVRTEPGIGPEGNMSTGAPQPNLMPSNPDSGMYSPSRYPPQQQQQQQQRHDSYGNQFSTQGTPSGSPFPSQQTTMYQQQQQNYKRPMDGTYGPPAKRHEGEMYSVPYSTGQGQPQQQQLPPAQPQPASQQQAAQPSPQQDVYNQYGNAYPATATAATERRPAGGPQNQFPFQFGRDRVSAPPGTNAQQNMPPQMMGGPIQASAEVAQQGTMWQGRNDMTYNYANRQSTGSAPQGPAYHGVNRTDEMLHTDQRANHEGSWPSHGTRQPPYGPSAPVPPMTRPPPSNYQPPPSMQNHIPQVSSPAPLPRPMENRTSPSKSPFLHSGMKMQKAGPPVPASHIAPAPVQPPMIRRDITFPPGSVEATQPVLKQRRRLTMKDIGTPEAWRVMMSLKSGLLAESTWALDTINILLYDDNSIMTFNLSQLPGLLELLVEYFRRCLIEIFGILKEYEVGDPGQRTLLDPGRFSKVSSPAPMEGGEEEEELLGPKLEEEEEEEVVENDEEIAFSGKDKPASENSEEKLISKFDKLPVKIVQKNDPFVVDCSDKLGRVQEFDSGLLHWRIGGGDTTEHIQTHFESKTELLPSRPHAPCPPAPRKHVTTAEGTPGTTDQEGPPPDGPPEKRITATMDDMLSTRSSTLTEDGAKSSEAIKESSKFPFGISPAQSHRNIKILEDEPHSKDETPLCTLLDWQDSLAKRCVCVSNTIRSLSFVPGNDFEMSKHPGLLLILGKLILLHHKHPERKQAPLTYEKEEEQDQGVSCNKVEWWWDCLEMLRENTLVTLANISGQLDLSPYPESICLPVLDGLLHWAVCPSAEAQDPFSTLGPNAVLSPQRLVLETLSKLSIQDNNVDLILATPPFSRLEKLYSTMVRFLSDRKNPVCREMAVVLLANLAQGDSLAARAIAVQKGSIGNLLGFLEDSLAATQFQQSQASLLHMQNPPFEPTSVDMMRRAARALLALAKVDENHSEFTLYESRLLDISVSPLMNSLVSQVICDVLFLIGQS
GST–ARID1A–ARM domain (1914–2285 aa): residues 1914-2285 of O14497
UniProt Q8NFD5: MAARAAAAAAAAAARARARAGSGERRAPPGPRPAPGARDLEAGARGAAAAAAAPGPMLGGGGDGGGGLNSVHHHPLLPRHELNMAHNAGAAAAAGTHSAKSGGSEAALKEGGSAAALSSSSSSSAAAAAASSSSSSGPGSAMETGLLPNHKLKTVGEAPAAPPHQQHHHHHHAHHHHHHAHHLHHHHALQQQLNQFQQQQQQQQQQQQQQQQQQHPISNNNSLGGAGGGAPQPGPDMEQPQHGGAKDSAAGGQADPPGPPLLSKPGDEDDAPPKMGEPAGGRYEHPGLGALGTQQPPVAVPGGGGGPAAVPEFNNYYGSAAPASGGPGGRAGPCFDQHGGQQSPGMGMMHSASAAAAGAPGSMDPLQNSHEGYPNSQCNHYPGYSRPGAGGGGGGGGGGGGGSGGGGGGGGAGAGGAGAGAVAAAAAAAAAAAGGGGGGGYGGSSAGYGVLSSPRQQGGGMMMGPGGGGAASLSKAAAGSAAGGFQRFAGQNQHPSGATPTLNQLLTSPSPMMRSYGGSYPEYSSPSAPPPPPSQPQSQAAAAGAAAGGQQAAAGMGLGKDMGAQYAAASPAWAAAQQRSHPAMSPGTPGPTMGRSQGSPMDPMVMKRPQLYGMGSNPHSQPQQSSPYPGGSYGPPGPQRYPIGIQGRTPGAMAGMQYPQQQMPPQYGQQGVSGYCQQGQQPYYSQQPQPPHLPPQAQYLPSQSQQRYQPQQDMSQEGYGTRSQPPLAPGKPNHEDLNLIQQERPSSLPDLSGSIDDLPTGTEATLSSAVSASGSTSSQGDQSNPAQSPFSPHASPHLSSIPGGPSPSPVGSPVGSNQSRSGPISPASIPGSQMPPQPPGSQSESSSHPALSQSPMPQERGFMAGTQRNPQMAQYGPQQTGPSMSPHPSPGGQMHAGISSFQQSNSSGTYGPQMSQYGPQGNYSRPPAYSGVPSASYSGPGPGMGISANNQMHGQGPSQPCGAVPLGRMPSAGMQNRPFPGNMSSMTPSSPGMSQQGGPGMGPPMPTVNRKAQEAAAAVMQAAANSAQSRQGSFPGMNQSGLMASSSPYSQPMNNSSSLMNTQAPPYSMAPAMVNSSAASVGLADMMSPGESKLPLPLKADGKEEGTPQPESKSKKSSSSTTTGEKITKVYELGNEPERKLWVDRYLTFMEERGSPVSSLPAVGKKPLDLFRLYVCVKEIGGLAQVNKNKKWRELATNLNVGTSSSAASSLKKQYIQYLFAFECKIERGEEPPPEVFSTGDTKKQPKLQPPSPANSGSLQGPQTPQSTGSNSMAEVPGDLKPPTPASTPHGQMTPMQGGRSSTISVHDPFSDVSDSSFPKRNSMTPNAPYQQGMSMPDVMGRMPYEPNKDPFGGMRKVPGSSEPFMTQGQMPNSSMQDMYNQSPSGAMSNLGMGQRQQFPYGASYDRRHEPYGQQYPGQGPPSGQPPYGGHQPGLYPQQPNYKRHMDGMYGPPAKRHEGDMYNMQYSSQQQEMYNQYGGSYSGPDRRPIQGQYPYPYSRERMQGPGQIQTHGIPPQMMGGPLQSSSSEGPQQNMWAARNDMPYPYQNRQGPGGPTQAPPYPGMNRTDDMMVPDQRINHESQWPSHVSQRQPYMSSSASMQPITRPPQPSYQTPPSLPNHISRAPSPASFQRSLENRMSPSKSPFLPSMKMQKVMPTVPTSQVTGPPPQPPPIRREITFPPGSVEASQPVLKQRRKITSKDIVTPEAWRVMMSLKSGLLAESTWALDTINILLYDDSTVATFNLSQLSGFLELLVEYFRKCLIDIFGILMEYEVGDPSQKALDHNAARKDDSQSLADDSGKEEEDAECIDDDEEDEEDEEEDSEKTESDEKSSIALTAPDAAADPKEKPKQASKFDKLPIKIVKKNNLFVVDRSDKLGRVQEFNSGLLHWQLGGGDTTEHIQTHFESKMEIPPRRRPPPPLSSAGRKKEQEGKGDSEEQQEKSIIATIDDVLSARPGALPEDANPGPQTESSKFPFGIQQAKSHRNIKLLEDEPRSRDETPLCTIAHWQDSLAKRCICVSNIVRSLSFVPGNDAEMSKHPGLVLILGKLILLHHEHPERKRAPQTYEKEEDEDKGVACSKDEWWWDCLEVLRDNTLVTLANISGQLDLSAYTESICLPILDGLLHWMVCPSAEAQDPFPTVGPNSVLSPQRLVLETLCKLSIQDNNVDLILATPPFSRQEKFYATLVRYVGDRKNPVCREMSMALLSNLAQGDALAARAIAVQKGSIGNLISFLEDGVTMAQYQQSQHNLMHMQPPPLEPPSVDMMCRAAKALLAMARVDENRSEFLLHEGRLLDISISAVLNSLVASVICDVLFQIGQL

Key:
[1] = biological target: GST–ARID1A–ARM domain (1914–2285 aa) (UniProt O14497); experiment: pull-down; GST–ARID1A mutants or GST–ARID1B–ARM on Glutathione Sepharose beads incubated with HEK293 (methods: 293T) nuclear extract for 4 h at 4°C with RNase A and DNase I; bound proteins by immunoblot; only the target purified
[2] = biological target: ARID1B, endogenous (human (endogenous in HEK293)) (UniProt Q8NFD5); experiment: co-IP; endogenous ARID1A or ARID1B immunoprecipitated with anti-ARID1A or anti-ARID1B from HEK293 nuclear extract; partners by immunoblot
[3] = biological target: AT-interacting domain-rich protein 1A (ARID1A), endogenous (human (endogenous in HEK293 and HCT116)) (UniProt O14497); experiment: as above

binding [1]: binds
binding [2]: binds
binding [3]: binds
B1: DNA polymerase λ (POLL) (protein, UniProt Q9UGP5 1-575)
chain: MDPRGILKAFPKRQKIHADASSKVLAKIPRREEGEEAEEWLSSLRAHVVRTGIGRARAELFEKQIVQHGGQLCPAQGPGVTHIVVDEGMDYERALRLLRLPQLPPGAQLVKSAWLSLCLQERRLVDVAGFSIFIPSRYLDHPQPSKAEQDASIPPGTHEALLQTALSPPPPPTRPVSPPQKAKEAPNTQAQPISDDEASDGEETQVSAADLEALISGHYPTSLEGDCEPSPAPAVLDKWVCAQPSSQKATNHNLHITEKLEVLAKAYSVQGDKWRALGYAKAINALKSFHKPVTSYQEACSIPGIGKRMAEKIIEILESGHLRKLDHISESVPVLELFSNIWGAGTKTAQMWYQQGFRSLEDIRSQASLTTQQAIGLKHYSDFLERMPREEATEIEQTVQKAAQAFNSGLLCVACGSYRRGKATCGDVDVLITHPDGRSHRGIFSRLLDSLRQEGFLTDDLVSQEENGQQQKYLGVCRLPGPGRRHRRLDIIVVPYSEFACALLYFTGSAHFNRSMRALAKTKGMSLSEHALSTAVVRNTHGCKVGPGRVLPTPTEKDVFRLLGLPYREPAERDW
